B1: Caulobacter ParB omega fusion; a variant is named by its letters at X, in order, B8GW30 (parent)
chain: MESVVVGEPGMSEGRRGLGRGLSALLGEVDAAPAQAPGEQLGGSREAPIEILQRNPDQPRRTFREEDLEDLSNSIREKGVLQPILVRPSPDTAGEYQIVAGERAWRAAQRAGLKTVPIMVRELDDLAVLEIGIIENVQRADLNVLEEALSYKVLMEKFERTQENIAQTIGKSXSHVANXMRLLXLPDEVQSYLVSGELTAXHARAIAAAADPVALAKQIIEGGLSVRETEALARKAPNLSAGKSKGGRPPRVKDTDTQALESDLSSVLGLDVSIDHRGSTGTLTITYATLEQLDDLCNRLTRGI

The full ranking holds about 81,000 sequences; the median of “one-hybrid fitness for binding parS DNA” is about -0.17, and the highest 2% start at about 0.51. This is one part of the list.

The variants in the test derive from B1. Put plainly: one-hybrid fitness for binding parS DNA (scaled: cognate 1, non-cognate 0); higher = stronger binding. Conditions: with parS DNA site. Put shortly:
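Selection: bacterial one-hybrid in E. coli USO, HIS3 reporter with the site 19 bp from the promoter, 48 hours at 37°C on M9-minus-histidine plus 0.1 mM IPTG and 5 mM 3-AT. Libraries were Caulobacter ParB with four randomised specificity codons, sequenced on Illumina before and after selection. Fitness is the rescaled log change in variant-to-wild-type read ratio, anchored to the cognate and non-cognate sites.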
Regarding CHRG, the “one-hybrid fitness for binding parS DNA” value is at most 0.2.
For VSNI the value was at most 0.2; for TVHR, at most 0.2; for PPHT, at most 0.2.
As to QRAA, the “one-hybrid fitness for binding parS DNA” value was at most 0.2.
With QYWV, the “one-hybrid fitness for binding parS DNA” value was at most 0.2.
On to YMDR, for which the “one-hybrid fitness for binding parS DNA” value was at most 0.2.
Regarding PPRE, the “one-hybrid fitness for binding parS DNA” value was at most 0.2.
As to ESKT, the “one-hybrid fitness for binding parS DNA” value was at most 0.2.
Take YLMR: the “one-hybrid fitness for binding parS DNA” value is at most 0.2.
As to AVYK, the “one-hybrid fitness for binding parS DNA” value is at most 0.2.
AQLC: the “one-hybrid fitness for binding parS DNA” value is at most 0.2.
For SPRG the value was at most 0.2.
With RANN, the “one-hybrid fitness for binding parS DNA” value came to 0.434.
Next, VVKM: at most 0.2.
For the variant WNAS, the “one-hybrid fitness for binding parS DNA” value is at most 0.2.
With TPVY, the “one-hybrid fitness for binding parS DNA” value is at most 0.2.
As for ADES, the “one-hybrid fitness for binding parS DNA” value was at most 0.2.
KVDS: the “one-hybrid fitness for binding parS DNA” value was at most 0.2.
With PPIM, the “one-hybrid fitness for binding parS DNA” value was at most 0.2.
Regarding PAQL, the “one-hybrid fitness for binding parS DNA” value is at most 0.2.
With MVHM, the “one-hybrid fitness for binding parS DNA” value is at most 0.2.
Next, NGEW: at most 0.2; LQIV: at most 0.2.
Next, DTLD: at most 0.2; RMLF: 0.238; IAAA: at most 0.2.
As for VHSG, the “one-hybrid fitness for binding parS DNA” value was at most 0.2.
On to GAHD, for which the “one-hybrid fitness for binding parS DNA” value is at most 0.2.
In the case of LQCL, the “one-hybrid fitness for binding parS DNA” value was at most 0.2.
Next, KIRR: at most 0.2; QKLH: at most 0.2; QNWE: at most 0.2.
For the variant RGKL, the “one-hybrid fitness for binding parS DNA” value was at most 0.2.
For SFRE the value was at most 0.2; for PCQG, at most 0.2.
For RAFI, the “one-hybrid fitness for binding parS DNA” value is at most 0.2.
Consider QQPD, for which the “one-hybrid fitness for binding parS DNA” value is at most 0.2.
With KVIA, the “one-hybrid fitness for binding parS DNA” value is at most 0.2.
As to QQNF, the “one-hybrid fitness for binding parS DNA” value was at most 0.2.
Regarding HFST, the “one-hybrid fitness for binding parS DNA” value is at most 0.2.
Take YPPI: the “one-hybrid fitness for binding parS DNA” value is at most 0.2.
HMQR: the “one-hybrid fitness for binding parS DNA” value is at most 0.2.
As for LSVC, the “one-hybrid fitness for binding parS DNA” value was at most 0.2.
Next, CFNW: at most 0.2.
On to RVVT, for which the “one-hybrid fitness for binding parS DNA” value turned out to be 0.795.
Next, SMEG: at most 0.2; HVST: at most 0.2; PNRT: at most 0.2.
For HVSS, the “one-hybrid fitness for binding parS DNA” value is at most 0.2.
Take VWFG: the “one-hybrid fitness for binding parS DNA” value was at most 0.2.
For YMIT the value was at most 0.2; for INNF, at most 0.2; for CPLP, at most 0.2.
Turning to TRVS, the “one-hybrid fitness for binding parS DNA” value is at most 0.2.
As to ELTV, the “one-hybrid fitness for binding parS DNA” value is at most 0.2.
Consider YSRK, for which the “one-hybrid fitness for binding parS DNA” value is at most 0.2.
For RSML the value was at most 0.2.
For CVRL the value was at most 0.2; for PAII, at most 0.2.
In the case of QMTM, the “one-hybrid fitness for binding parS DNA” value was at most 0.2.
For VTEF the value was at most 0.2.
On to GLGY, for which the “one-hybrid fitness for binding parS DNA” value is at most 0.2.
Consider LISY, for which the “one-hybrid fitness for binding parS DNA” value was at most 0.2.
In the case of APEY, the “one-hybrid fitness for binding parS DNA” value is at most 0.2.
QQRY: the “one-hybrid fitness for binding parS DNA” value is at most 0.2.
For the variant QYLK, the “one-hybrid fitness for binding parS DNA” value is at most 0.2.
For LSSN the value was at most 0.2.
Next, DSQF: at most 0.2; STAE: at most 0.2; HLVR: at most 0.2.
For the variant RYHL, the “one-hybrid fitness for binding parS DNA” value is at most 0.2.
In the case of YFNC, the “one-hybrid fitness for binding parS DNA” value was at most 0.2.
As to NFAS, the “one-hybrid fitness for binding parS DNA” value came out at 0.255.
In the case of DPDR, the “one-hybrid fitness for binding parS DNA” value is at most 0.2.
For LNNP, the “one-hybrid fitness for binding parS DNA” value was at most 0.2.
In the case of YYHM, the “one-hybrid fitness for binding parS DNA” value was at most 0.2.
Next, HQCG: at most 0.2.
In the case of DFRS, the “one-hybrid fitness for binding parS DNA” value was at most 0.2.
Next, TMHI: at most 0.2; TCLW: at most 0.2.
On to AEKR, for which the “one-hybrid fitness for binding parS DNA” value is at most 0.2.
For SWLM the value was at most 0.2; for NSAC, at most 0.2; for TTVQ, at most 0.2.
As to MVGT, the “one-hybrid fitness for binding parS DNA” value is at most 0.2.
Take AGAC: the “one-hybrid fitness for binding parS DNA” value was at most 0.2.
As for VLSK, the “one-hybrid fitness for binding parS DNA” value was at most 0.2.
For VEGT the value was at most 0.2; for WMMT, at most 0.2; for GPVS, at most 0.2.
For GYKD the value was at most 0.2.
Next, LWIL: at most 0.2; HTRT: at most 0.2.
As to FTTT, the “one-hybrid fitness for binding parS DNA” value was at most 0.2.
SIQS: the “one-hybrid fitness for binding parS DNA” value was at most 0.2.
For FMKM, the “one-hybrid fitness for binding parS DNA” value is at most 0.2.
In the case of NWKS, the “one-hybrid fitness for binding parS DNA” value was at most 0.2.
For DWTR the value was at most 0.2; for QEVN, at most 0.2; for DDQS, at most 0.2.
For QWVG the value was at most 0.2; for PPLF, at most 0.2.
As for WFMS, the “one-hybrid fitness for binding parS DNA” value was at most 0.2.
As to PGVS, the “one-hybrid fitness for binding parS DNA” value was at most 0.2.
For TSHM, the “one-hybrid fitness for binding parS DNA” value is at most 0.2.
Regarding EDYG, the “one-hybrid fitness for binding parS DNA” value is at most 0.2.
Next, DLDT: at most 0.2; VNVW: 0.237; GVCD: at most 0.2.
As for GICT, the “one-hybrid fitness for binding parS DNA” value is at most 0.2.
As for ASGQ, the “one-hybrid fitness for binding parS DNA” value was at most 0.2.
Turning to IAWS, the “one-hybrid fitness for binding parS DNA” value was at most 0.2.
In the case of ILTL, the “one-hybrid fitness for binding parS DNA” value was at most 0.2.
With HIGC, the “one-hybrid fitness for binding parS DNA” value was at most 0.2.
Consider TYKP, for which the “one-hybrid fitness for binding parS DNA” value is at most 0.2.
For the variant RPIG, the “one-hybrid fitness for binding parS DNA” value is at most 0.2.
Turning to QIKK, the “one-hybrid fitness for binding parS DNA” value was at most 0.2.
For AVTM the value was at most 0.2.
As to YWQR, the “one-hybrid fitness for binding parS DNA” value was at most 0.2.
For the variant RSIT, the “one-hybrid fitness for binding parS DNA” value came out at 0.628.
For RLQK, the “one-hybrid fitness for binding parS DNA” value is at most 0.2.
Next, QQKL: at most 0.2; PIKI: at most 0.2.
On to SRDV, for which the “one-hybrid fitness for binding parS DNA” value is at most 0.2.
For the variant CAPR, the “one-hybrid fitness for binding parS DNA” value is at most 0.2.
In the case of KILN, the “one-hybrid fitness for binding parS DNA” value was at most 0.2.
As for RIPM, the “one-hybrid fitness for binding parS DNA” value was at most 0.2.
For KQKM the value was at most 0.2.
As to QRMI, the “one-hybrid fitness for binding parS DNA” value is at most 0.2.
Turning to NCFR, the “one-hybrid fitness for binding parS DNA” value was at most 0.2.
Turning to QDFS, the “one-hybrid fitness for binding parS DNA” value is at most 0.2.
Consider KQDR, for which the “one-hybrid fitness for binding parS DNA” value was at most 0.2.
For the variant SCTM, the “one-hybrid fitness for binding parS DNA” value is at most 0.2.
Regarding FGTY, the “one-hybrid fitness for binding parS DNA” value is at most 0.2.
As to GTHV, the “one-hybrid fitness for binding parS DNA” value was at most 0.2.
For the variant NGRC, the “one-hybrid fitness for binding parS DNA” value is at most 0.2.
For the variant LLAT, the “one-hybrid fitness for binding parS DNA” value is at most 0.2.
On to CNCG, for which the “one-hybrid fitness for binding parS DNA” value was at most 0.2.
With REHV, the “one-hybrid fitness for binding parS DNA” value was at most 0.2.
As to GNAI, the “one-hybrid fitness for binding parS DNA” value is at most 0.2.
For MKDS the value was at most 0.2; for PPMG, at most 0.2.
Turning to SDRQ, the “one-hybrid fitness for binding parS DNA” value is at most 0.2.
For RFYI, the “one-hybrid fitness for binding parS DNA” value was at most 0.2.
Regarding LMRN, the “one-hybrid fitness for binding parS DNA” value is at most 0.2.
Take FFTF: the “one-hybrid fitness for binding parS DNA” value is at most 0.2.
For DTKK the value was at most 0.2.
Next, SPKT: at most 0.2; TETR: at most 0.2.
Next, DPSS: at most 0.2; GAIG: at most 0.2.
In the case of RYLA, the “one-hybrid fitness for binding parS DNA” value came out at 0.608.

The record behind these values is a collection of fitness landscapes (doi:10.1016/j.celrep.2020.107928).
